The campaign covered roughly 44,000 compounds. About 340 (0.77%) were called active. Inconclusive results (about 5%) are left out. Calls follow the shape of the dose curve; as a rule, active = well fitted inhibition curve with a large enough effect; inconclusive = small, poorly fitted or top-dose-only effect; inactive = flat fitted curve, though single readings scatter. The list shows a part of the results.
Experiment: Acumen qHTS Assay for Inhibitors of the mTORC1 Signaling Pathway in MEF (Tsc2-/-, p53-/-) Cells: Sytravon;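 also: plate controls were DMSO for no effect and rapamycin for full effect; nearly all actives have a fitted effect of over 50% in size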
Conditions: phospho-rpS6 immunofluorescence/PI, 24 h; series mostly up to 38.3 µM; activity change, negative = inhibition: at the top concentration
In short: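 Tsc2-/-, p53-/- MEFs (empty-vector stable line) in DMEM + 10% FBS were treated with compounds 24 h at 37 degree Celsius, fixed, and immunostained for phospho-rpS6 (Alexa-488) with propidium iodide counterstain. Laser-scanning cytometry gave % positive cells, normalized against 7.5 nM rapamycin and DMSO.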

Activity change, negative = inhibition, inactive:
O=C(Nc1cccc(C(=O)OCc2cc(=O)n3nc(C4CC4)sc3n2)c1)c1ccc(F)cc1 2.66%
CC(=O)c1ccc(S(=O)(=O)N2CCC(Oc3ccc(-n4cnnn4)cc3)CC2)cc1 -0.138%
O=C(Nc1cccc(Cl)c1)N1Cc2ccccc2Oc2ncccc21 -17.5%
CCc1ccc(NC(=O)CN2C(=O)C(=O)c3ccccc32)cc1 -18.7%
COc1ccc(S(=O)(=O)Nc2ccc(O)c(Sc3nc4ccccc4s3)c2)cc1 -2.28%
CCCC(=O)NC1CC(=O)N(c2ccc3c(c2)OCCO3)C1 (stereo not given) 0.384%
COc1ccccc1C1C(C(N)=O)=C(C)Nc2nc(SCc3ccccc3F)nn21 (stereo not given) -1.47%
Cc1c(C(=O)N(C)C)sc2c1c(=O)n(-c1ccc(Cl)c(Cl)c1)c(=O)n2Cc1ccc(F)cc1 -1.37%
CCOc1ccccc1NC(=O)c1ccc2oc(=O)c(S(=O)(=O)c3ccc(F)cc3)cc2c1 -3.23%
CN(C(=O)CSc1nc2ccc(NC(=O)c3ccc(F)cc3)cc2s1)c1ccccc1 -9.99%
Cc1ccccc1CCNC(=O)c1cc2ccccn2n1 0%
Cc1cccc(N2CCN(C(=O)Cn3nc(C)c4sc5ccccc5c4c3=O)CC2C)c1 (stereo not given) -4.62%
CCn1cc(C(=O)N(C)Cc2ccccc2)c(=O)c2cc(S(=O)(=O)N3CCCCC3)ccc21 -3.24%
COc1ccc(-c2onc(C)c2C)cc1S(=O)(=O)NC1CCCCC1 0.724%
CCOC(=O)Cn1nc(N2CCN(c3ccc(F)cc3)CC2)ccc1=O -0.461%
CCOC(=O)c1cccc(NC(=O)CCc2c(C)nc3c4cccnc4nn3c2C)c1 -0.525%
COC(=O)C1=C(c2ccccc2)c2ccccc2S(=O)(=O)N1CC(=O)Nc1cc(C)ccc1C -13%
Cc1ccc(CN2C(=O)C3(SCC(=O)N3c3ccc(C)c(C)c3)c3ccccc32)cc1 (stereo not given) 3.01%
Cc1cccc(N2CCN(c3c(CN4CCCC4)c(=O)oc4ccccc34)CC2)c1C 4.15%
CSc1ccc(Nc2nn(-c3ccc(OC(F)(F)F)cc3)nc2C(C)=O)cc1 -2.18%
Cc1c(C(=O)N2CCOCC2)oc2c1-c1nn(CC(=O)NCc3ccccc3)cc1CC2 2.65%
Cn1c(=O)n(C)c2cc(CNCc3ccc(C(=O)O)cc3)ccc21 -0.655%
CCOCCn1ccc2c(OCC(=O)Nc3cc(C(F)(F)F)ccc3Cl)cccc2c1=O -9.23%
Cc1ccc2c(c1)N(CC(=O)NCc1cccc(Cl)c1)C(=O)c1cccnc1O2 -4.73%
COc1ccccc1Cn1c(CNS(=O)(=O)c2c(C)cc(C)cc2C)nc2cccnc21 -8.17%
Cc1ccc(-n2nc(C)c3c(C)c(CCC(=O)NCc4cccc(Cl)c4)c(C)nc32)cc1C -1.09%
CC(=O)c1cccc(NC(=O)c2ccc3c(c2)CCN3S(=O)(=O)c2ccccc2)c1 -4.44%
CCOCCCn1c(=N)c(S(=O)(=O)c2ccccc2)cc2c(=O)n3cc(C)ccc3nc21 5.08%
CCn1cc(S(=O)(=O)c2ccccc2)c(=O)c2cc(F)c(N3CCCCCC3)cc21 -3.49%
Cc1cccc(C(=O)Nc2cc3c(cc2N2CCCCC2)n(C)c(=O)n3C)c1 1.06%
CCOc1ccc(CCNC(=O)c2cc3cc4ccc(OC)cc4nc3s2)cc1OCC -11.6%
O=C(CSc1c2c(nc3ccc(Cl)cc13)CCCC2)N1CCCCC1 -6.2%
Cc1ccccc1OCC(=O)Nc1ccc(S(=O)(=O)Nc2ncccn2)cc1 10.3%
COc1ccc(C(=O)Oc2c(Sc3ccc(C)cc3)c(C)nn2C(C)(C)C)c(OC)c1 6.99%
COCCNC(=O)C(=O)Nc1ccc2nc3n(c(=O)c2c1)CCCCC3 -17%
C=Cc1ccc(Cn2c(C(=O)O)c(CNCc3cc(OC)ccc3OC)c3ccc(C)cc32)cc1 1.33%
COc1ccc(-c2nc(C)c(CCNC(=O)c3cccc(C)c3)s2)cc1OC -0.758%
COc1ccc(CCNC(=O)C(C)n2nc(C)c3sc4ccccc4c3c2=O)cc1OC (stereo not given) -5.28%
CCOc1ccc(C2C(C(=O)Nc3ccc(C)cc3C)=C(C)Nc3c(C(=O)Nc4ccc(C)cc4)cnn32)cc1OC (stereo not given) -7.5%
CCC12CN3CC(C)(CN(C1)C3c1c(C)[nH]c3ccccc13)C2=O (stereo not given) -5.76%
COc1ccc(-c2nc3c(C#N)c[nH]n3c2NC2CCCCC2)cc1 -7.47%
COc1ccc(C2NC(=O)N(C)C3=C2C(=O)N(c2ccccc2)C3)cc1 (stereo not given) 4.14%
COC(=O)c1cc2sccc2n1Cc1ccc(F)cc1 -18.8%
Cc1ccc(C)c(CNC(=O)C2CCCCN2S(=O)(=O)c2ccc(F)cc2)c1 (stereo not given) 0%
CCOc1ccc(NC(=O)c2cccc(N3CCCS3(=O)=O)c2)cc1 4.05%
Cc1ccc(C)c(N2CCN(C(=O)CN3C(=O)COc4ccc(S(=O)(=O)N5CCOCC5)cc43)CC2)c1 1.06%
CCN(c1cccc(C)c1)C(CNS(=O)(=O)c1ccccc1)c1ccccc1 (stereo not given) 0.312%
Cc1cccc(-c2cc(NC(=O)c3ccccc3C)n(-c3ccccc3)n2)c1 2.68%
CCC(=O)N1c2ccccc2CC1C(=O)NCCCN1CCN(c2ccccc2)CC1 (stereo not given) 0%
O=C(Nc1ccc(F)c(Cl)c1)C1CCCN(c2ncnc3onc(-c4ccc(F)cc4)c23)C1 (stereo not given) 1.41%
Cc1ccc(C)c(NC(=O)c2cc(S(=O)(=O)N3CCc4ccccc4C3)ccc2F)c1 7.1%
COc1ccccc1CNC(=O)c1cc2sccc2n1Cc1ccc(F)cc1 -27.2%
COc1ccc(C2C=C(c3ccc(C)cc3)Nc3c(C(=O)Nc4ccccc4)cnn32)cc1 (stereo not given) -4.35%
COc1ccc(Br)cc1CNC(=O)CCCn1c(=O)c2cccn2c2cccnc21 -9.3%
COc1ccc(-c2noc(-c3ccccc3OCC(=O)Nc3ccc(C(C)=O)cc3)n2)cc1 1.09%
O=C(Cn1ncc2c3ccccc3n(Cc3ccccc3)c2c1=O)N1CCCCCC1 -11.7%
COCCCn1c(SCc2ccccc2F)nc2c(sc3ccccc32)c1=O 1.54%
COc1ccccc1NC(=O)Cn1c(=O)n(-c2ccccc2Cl)c(=O)c2sc3ccccc3c21 -14.1%
CCOC(=O)c1[nH]c2ccccc2c1NC(=O)c1cc(Cl)ccc1Cl -28.9%
Cc1ccc(CNc2ccc(-c3nc(-c4cccnc4)no3)cc2[N+](=O)[O-])cc1 1.01%
CCN(CC)S(=O)(=O)c1ccc2c(c1)N(CC(=O)Nc1ccc(F)cc1F)C(=O)C1CCCN21 (stereo not given) 3.08%
COc1ccc(CNC(=O)CCCCCn2c(=O)[nH]c3ccccc3c2=O)cc1 0.209%
COc1cc(NC(=O)Cn2c(C)cc(C)c(C#N)c2=O)cc(OC)c1 0%
CCOC(=O)c1[nH]c2ccccc2c1NC(=O)c1ccc(OC)c(OC)c1 -3.65%
CCn1cc(C(=O)NCCc2ccc(Cl)cc2)c(=O)c2cc(S(=O)(=O)N3CCOCC3)ccc21 -15.6%
Oc1cccc(-c2nc3ncccn3c2Nc2cccc(C(F)(F)F)c2)c1 -3.92%
O=C(CC(c1cccs1)N1Cc2ccccc2C1=O)Nc1ccc(Cl)cc1 (stereo not given) 3.39%
COc1ccccc1Cc1nc2ccccc2nc1SCC(=O)NCc1ccc(F)cc1 1.8%
COc1ccccc1Nc1nc2c(S(=O)(=O)c3ccc(C(C)C)cc3)nnn2c2ccsc12 -2.8%
Cc1ccc2c(=O)cc(C(=O)Nc3ccc(S(=O)(=O)N4CCCCC4)cc3)oc2c1C -9.07%
Cc1cccc(N2CCN(c3ncnc4onc(-c5ccc(F)cc5)c34)CC2C)c1 (stereo not given) -11%
CCOc1ccc2nc(Cl)c(C3CC(c4ccc(C)cc4)=NN3C(=O)CCCC(=O)O)cc2c1 (stereo not given) -3.02%
Cc1cc(C)c2oc(-c3ccc(NC(=O)c4cc(Br)ccc4Cl)cc3)nc2c1 2.53%
Cc1ccc(NC(=O)CCc2nc3cccnc3n2-c2ccccc2)cc1 -17.4%
Cc1coc2cc3oc(=O)c(CC(=O)NCCc4ccccc4F)c(C)c3cc12 3.55%
O=C(Cn1c(=O)n(Cc2ccc(C(=O)NCc3ccccc3Cl)cc2)c(=O)c2ccccc21)Nc1ccc(F)cc1 3.59%
CC(C)(C)C(=O)Nc1ccc(Cl)c(-c2nc3ccccc3[nH]2)c1 -0.112%
Cc1c(-c2ccccc2)n(-c2ccc(Cl)cc2)c2nc3c(c(=O)n(C)c(=O)n3C)n12 -2.36%
Cc1ccn2c(c1)nc(=O)c1cc(S(=O)(=O)N3CCC(C)CC3)c(Cl)cc12 0.245%
CCCCN(C)CCNC(=O)c1cc(-c2cccnc2)nc2ccc(S(=O)(=O)N3CCC(C)CC3)cc12 0.0245%
O=C(COc1ccccc1F)Nc1ccc(C(=O)OCc2cc(=O)n3nc(C4CC4)sc3n2)cc1 0%
CN(Cc1ccccc1)c1nc(-c2ccc(F)cc2)cc(C(F)(F)F)n1 -16%
CCc1ccc(-n2c(C)nnc2SCc2nc(-c3ccc(OC)cc3)no2)cc1 4.98%
Cc1ccc(NC(=O)CCSCCc2ccccn2)cc1 2.32%
Cc1ccc(-c2cc3ncc(C(=O)c4cc([N+](=O)[O-])ccc4O)cn3n2)cc1 -4.43%
O=C(Nc1ccc(Cl)cc1Cl)c1cc(S(=O)(=O)N2CCN(c3ccccc3F)CC2)ccc1F 5.92%
COc1ccc(Br)cc1CNC(=O)CCCn1c(=O)c2cccn2c2ccccc21 5.27%
CCC(C(=O)Nc1cccc(-c2cn3cccnc3n2)c1)c1ccccc1 (stereo not given) -0.151%
CCC(Oc1ccccc1F)C(=O)Nc1c(C(=O)c2ccccc2)oc2ccccc12 (stereo not given) -6.93%
CC(C)(C)OC(=O)N1CCC(c2c(C(=O)NCc3ccc4c(c3)OCO4)cnn2-c2ccc(F)cc2F)CC1 2.19%
O=C(Nc1ccc(Cl)cc1)C1CCN(c2nc3ccccc3n3cccc23)CC1 -12.1%
COc1cccc(-c2nnc3n(Cc4ccc(F)cc4)c(=O)c4ccccc4n23)c1 -0.809%
CN(C)c1ccc(C(CNS(=O)(=O)c2ccc(Cl)cc2)N2CCCC2)cc1 (stereo not given) 0%
COc1ccc(CCNC(=O)NCc2noc3ccccc23)c(OC)c1 -29.5%
CC1=C(C(=O)Nc2ccc(C)cc2C)C(c2ccccc2C)n2ncnc2N1 (stereo not given) -1.84%

Reference: PubChem BioAssay AID493208 (National Center for Advancing Translational Sciences (NCATS), 2011)
